Results as given in PubChem BioAssay AID686978 (National Center for Advancing Translational Sciences (NCATS), 2013).
Values joined by “and” are separate entries in the source; they are usually repeats but may differ in a detail not shown here. Identical values can stand only once. About 64,000 (15%) of roughly 420,000 compounds were called active. Inconclusive means that the source gave no clear call. Such entries were picked first, then a sample of the others. Calls come from the whole dose curve; as a rule, active = well fitted inhibition curve with a large enough effect; inconclusive = small, poorly fitted or top-dose-only effect; inactive = flat fitted curve, though single readings scatter. Potencies of inconclusive entries are left out as doubtful fits.

Test: qHTS for Inhibitors of human tyrosyl-DNA phosphodiesterase 1 (TDP1): qHTS in cells in absence of CPT; note: nearly all actives have a fitted effect of over 55% in size
Conditions: DT40 Tdp1-/- hTDP1 cells, no CPT, ATP luminescence, 48 h; activity change, negative = growth inhibition: at 46.2 µM (top of the series) unless noted
How it was run: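 Chicken DT40 Tdp1-/- cells complemented with human TDP1, screened without camptothecin (DMSO vehicle only), 400 cells/well. Compounds pin-transferred, cells incubated at 37 °C for at least 48 hr. Growth read as ATP-dependent luminescence (CellTiter-Glo, 30 min at RT).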
% is set by controls: 0 for no effect and ±100 for the full control effect; potency is the fitted concentration of half-maximal effect; tags give direction and shape of the fitted curve.

**Q.** With `COC(=O)COc1ccc(/C=N/NC(=O)c2ccc(N(Cc3ccccc3)S(C)(=O)=O)cc2)cc1` as the compound, how does the Potency read?
**A.** inactive

**Q.** Which Potency does the source give for `CCNC(=O)CC1C(=O)N(c2ccc(F)cc2)C(=O)N1Cc1ccccn1` (stereo not drawn) here?
**A.** inconclusive [inhibitor, single point]

**Q.** For `O=C(NC(=S)N(CCO)Cc1ccccc1)c1cc(Br)ccc1Cl`, which Potency is on record?
**A.** inconclusive [inhibitor, single point]

**Q.** For `CC(=O)c1cc(-c2ccccc2)[nH]c1N1CCCC1`, which Potency is on record?
**A.** inconclusive [inhibitor, single point]

**Q.** Which Potency does the source give for `Cc1ccc(C(=O)N(C)CC(=O)Nc2cccc(F)c2)cc1S(=O)(=O)N1CCCCC1` here?
**A.** inconclusive [inhibitor, single point]

**Q.** Which Potency does the source give for `CCOc1ccc(NC(=O)c2cc(C3CC3)nc3c2cnn3C(C)C)cc1OC` here?
**A.** inconclusive [inhibitor, single point]

**Q.** Which Potency does the source give for `COCC(=O)N1c2nc(-c3ccco3)nn2C2(CCCCC2)[C@@H]2CCCC[C@@H]21` here?
**A.** inconclusive [inhibitor, single point]

**Q.** With `CC1(C(=O)NCc2cccs2)Cc2c(-c3ccc(C(N)=O)cc3)ccnc2O1` (stereo not drawn) as the compound, how does the Potency read?
**A.** active: 3.26 µM

**Q.** With `CCOc1ccccc1NC(=O)c1ccc(CN2CCc3ccccc3C2)cc1` as the compound, how does the Potency read?
**A.** inconclusive [inhibitor, single point]

**Q.** For `CCCCc1c(-c2cccc(Br)c2)ncn1CCc1ccccc1OC`, which Potency is on record?
**A.** active: 5.8 µM

**Q.** Which Potency does the source give for `Cc1ccc(NCC(=O)Nc2cccc(F)c2)cc1S(=O)(=O)N1CCCCCC1` here?
**A.** active: 16.4 µM

**Q.** With `COc1ccc(OCCCON2C(=O)c3ccccc3C2=O)cc1` as the compound, how does the Potency read?
**A.** inactive

**Q.** For `O=C1N(CCCCN2C(=O)C3(OCCO3)c3ccccc32)c2ccccc2C12OCCO2`, which Potency is on record?
**A.** inconclusive [inhibitor, partial curve, poor fit]

**Q.** For `CCCN(C(=O)c1cc2c(=O)oc3ccccc3c2s1)c1ccccc1C`, which Potency is on record?
**A.** inconclusive [inhibitor, partial curve, poor fit]

**Q.** For `CCC(C)NC(=O)Cn1c(=O)ccc2cc(S(=O)(=O)N3CCCC3)ccc21` (stereo not drawn), which Potency is on record?
**A.** inconclusive [inhibitor, partial curve]

**Q.** With `O=C1NC(=Nc2ccc(F)cc2)SC1Cc1ccc(F)cc1` (stereo not drawn) as the compound, how does the Potency read?
**A.** inconclusive [inhibitor, partial curve]

**Q.** For `Cc1cccc(Nc2ccccc2)c1`, which Potency is on record?
**A.** inactive

**Q.** For `O=C1CNC(=O)N1CC(O)Cn1c2ccccc2c2ccccc21` (stereo not drawn), which Potency is on record?
**A.** inactive

**Q.** With `O=S1(=O)CCO[C@H]2CCCC[C@@H]2N1Cc1ccccc1F` as the compound, how does the Potency read?
**A.** inconclusive [inhibitor, single point]

**Q.** With `CCCC(=O)Nc1ccc(C(=O)/C=C/c2ccc(SC)cc2)cc1` as the compound, how does the Potency read?
**A.** active: 18.4 µM

**Q.** Which Potency does the source give for `CCCc1cc(=O)[nH]c(SCC(=O)NC2(C#N)CCCCC2)n1` here?
**A.** inactive

**Q.** For `CCCCCCCCCOC(=O)C(CC(=O)O)N1CCOCC1` (stereo not drawn), which Potency is on record?
**A.** inactive

**Q.** Which Potency does the source give for `CCOc1ccc(CSC2=NCCN2)cc1Cl` here?
**A.** active: 14.6 µM

**Q.** For `Cc1cccc(Oc2ccc(S(=O)(=O)N3CCCCC3)cc2N)c1`, which Potency is on record?
**A.** inconclusive [inhibitor, single point]

**Q.** Which Potency does the source give for `N#Cc1ccsc1NC(=O)CCS(=O)(=O)c1ccccc1` here?
**A.** inconclusive [inhibitor, single point]

**Q.** Which Potency does the source give for `CCOc1cc(CNC(=O)c2ccc3nc(CCc4ccccc4)oc3c2)ccc1OC` here?
**A.** inconclusive [inhibitor, single point]

**Q.** Which Potency does the source give for `CCOC(=O)c1nn(-c2ccccc2Cl)c(=O)cc1OCC(=O)Nc1cccc(OC)c1` here?
**A.** inactive

**Q.** With `COc1ccc(/C=C2/CCc3ccccc3C2=O)cc1OC` as the compound, how does the Potency read?
**A.** inconclusive [inhibitor, single point]

**Q.** With `Nc1ccc(OCc2ccccc2)cc1[N+](=O)[O-]` as the compound, how does the Potency read?
**A.** inactive

**Q.** Which Potency does the source give for `CCN(CC)S(=O)(=O)c1ccc(N2CCOCC2)c(NC(=O)c2sccc2C)c1` here?
**A.** active: 18.4 µM

**Q.** With `CCOc1ccccc1NC(=S)NCCCn1ccnc1` as the compound, how does the Potency read?
**A.** inactive

**Q.** With `CN(C)c1cc(N2CCOCC2)nc(C#N)n1` as the compound, how does the Potency read?
**A.** inconclusive [inhibitor, single point]

**Q.** Which Potency does the source give for `Cc1cccc(-c2oc3ccc(-c4ccc5c(c4)OCO5)cc3c2C#Cc2cncn2C)c1` here?
**A.** inconclusive [inhibitor, single point]

**Q.** Which Potency does the source give for `O=S(=O)(c1ccccc1)N1CCC[C@@]2(CCN(C(c3ccccc3)c3ccccc3)C2)C1` here?
**A.** inactive

**Q.** For `COc1ccc(N2CCN(C(=O)C3CCCN3S(=O)(=O)c3cccc4nsnc34)CC2)cc1` (stereo not drawn), which Potency is on record?
**A.** inconclusive [inhibitor, single point]

**Q.** With `Cc1ccc(S(=O)(=O)NCCc2csc3nc(-c4ccccc4C)nn23)cc1` as the compound, how does the Potency read?
**A.** inconclusive [inhibitor, single point]

**Q.** Which Potency does the source give for `CCc1ccc(-c2cn(-c3nc(C)cc(C)n3)c(=N)o2)cc1` here?
**A.** inconclusive [inhibitor, single point]

**Q.** With `Clc1ccc(CSc2nnc(-c3ccccn3)n2Cc2ccco2)c(Cl)c1` as the compound, how does the Potency read?
**A.** active: 29.1 µM

**Q.** Which Potency does the source give for `C=CC1=CCN(S(=O)C(C)(C)C)[C@H]1CCO` (stereo partly drawn) here?
**A.** inactive

**Q.** Which Potency does the source give for `S=C1NCN(Cc2cccnc2)CN1Cc1ccccc1` here?
**A.** inconclusive [inhibitor, single point]

**Q.** Which Potency does the source give for `CCOC(=O)N1CCN(Cc2nc(-c3ccc(OC)cc3)no2)CC1` here?
**A.** inconclusive [inhibitor, single point]

**Q.** With `Cc1ccc2nc(C)c(C(=O)N/N=C/c3cccs3)cc2c1` as the compound, how does the activity change, negative = growth inhibition read?
**A.** inconclusive: -31.2% [inhibitor]

**Q.** With `Cc1c(O[C@@H]2O[C@H](CO)[C@@H](O)[C@H](O)[C@H]2O)ccc2c1oc(=O)c1ccccc12` as the compound, how does the Potency read?
**A.** inconclusive [inhibitor, partial curve]

**Q.** With `COC(=O)c1cccc(CN2C(=O)C(C)Sc3ccc(C(C)=O)cc32)c1` (stereo not drawn) as the compound, how does the Potency read?
**A.** inconclusive [inhibitor, single point]

**Q.** Which Potency does the source give for `CCOC(=O)c1cnc(SC)nc1Nc1cccc(F)c1` here?
**A.** inactive

**Q.** For `Cc1ccc2cc(C(c3nnnn3C3CCCC3)N(Cc3cccnc3)Cc3ccco3)c(=O)[nH]c2c1` (stereo not drawn), which activity change, negative = growth inhibition is on record?
**A.** inconclusive: -34.9% [inhibitor]

**Q.** Which Potency does the source give for `CCOc1ccc(N2CC(c3nc4ccccc4n3CCOc3ccc(CC)cc3)CC2=O)cc1` (stereo not drawn) here?
**A.** inconclusive [inhibitor, single point]

**Q.** For `CC(C)(C)[C@]1(O)CCN2C[C@H]3c4ccccc4CCc4cccc(c43)[C@@H]2C1`, which Potency is on record?
**A.** active: 8.2 µM and active: 11.6 µM

**Q.** Which Potency does the source give for `COc1ccc(-c2nnc(-c3ccc(F)cc3)o2)cc1` here?
**A.** inactive

**Q.** For `CCOc1ccccc1C(=O)NC(C)CCc1ccccc1` (stereo not drawn), which Potency is on record?
**A.** active: 16.4 µM

**Q.** Which Potency does the source give for `CCN(C(=O)COc1cc(=O)n(C)c2ccccc12)c1cccc(Cl)c1` here?
**A.** inconclusive [inhibitor, single point]

**Q.** Which Potency does the source give for `COc1ccc(NC(=S)N2CCCC(c3nc4ccc(C)cc4[nH]3)C2)cc1` (stereo not drawn) here?
**A.** inactive

**Q.** With `COc1ccccc1NC(=O)C1=C(C)Nc2ncnn2C1c1cccs1` (stereo not drawn) as the compound, how does the Potency read?
**A.** inconclusive [inhibitor, single point]

**Q.** With `Cc1ccccc1NC(=O)c1cnc2sc(N3CCCC3)nn2c1=O` as the compound, how does the Potency read?
**A.** inactive

**Q.** Which Potency does the source give for `Cc1ccc(NC(=O)c2nc(SCc3ccccc3F)ncc2Cl)cc1` here?
**A.** inactive

**Q.** For `Cc1cccc(-n2cnc(C(=O)N/N=C/c3ccccc3)c2)n1`, which Potency is on record?
**A.** inconclusive [inhibitor, partial curve]

**Q.** Which Potency does the source give for `Nc1nc(SCc2ccc(Br)cc2)c2ncn(C3OC(CO)C(O)C3O)c2n1` (stereo not drawn) here?
**A.** inconclusive [inhibitor, single point]

**Q.** With `COc1ccccc1NS(=O)(=O)c1cc(NC(=O)c2cc3ccccc3oc2=O)ccc1C` as the compound, how does the Potency read?
**A.** inconclusive [inhibitor, partial curve]

**Q.** Which Potency does the source give for `CCOc1ccc(S(=O)(=O)N2CCC(C(=O)NCCc3ccccc3)CC2)cc1` here?
**A.** inactive

**Q.** Which Potency does the source give for `O=C(Cc1csc(NC(=O)c2ccc(F)cc2)n1)NO` here?
**A.** inconclusive [inhibitor, single point]

**Q.** With `COc1ccc(CN2CCC[C@]3(N[C@H](c4ccc(C(F)(F)F)cc4)[C@@H]4C(=O)N(Cc5ccccc5)C(=O)[C@@H]43)C2=O)cc1` as the compound, how does the Potency read?
**A.** inconclusive [inhibitor, single point]

**Q.** With `COC(=O)c1ccc(C)cc1C1CN=NC12Cc1cc(C)ccc1C2=O` (stereo not drawn) as the compound, how does the Potency read?
**A.** inconclusive [inhibitor, single point]

**Q.** For `CC(C)(C)SC(=O)C[C@@H]1NS(=O)(=O)OC2CCCCC21` (stereo partly drawn), which Potency is on record?
**A.** inactive

**Q.** With `N#C/C(=C/c1cccc([N+](=O)[O-])c1)C(=O)Nc1ccccc1O` as the compound, how does the Potency read?
**A.** inconclusive [inhibitor, single point]

**Q.** With `CC1=C(C(=O)N(C(C)C)C(C)C)CC(CC(=O)NC2CCCCC2)C(=O)N1CCC1=CCCCC1` (stereo not drawn) as the compound, how does the Potency read?
**A.** active: 23.1 µM

**Q.** For `Cc1ccc(C)c(CN2C(=O)c3ccccc3S(=O)(=O)c3ccc(C(=O)NCc4ccccc4)cc32)c1`, which Potency is on record?
**A.** inactive

**Q.** Which Potency does the source give for `FC(F)(F)c1cccc(NC(=S)N2CCN(c3ccccc3)CC2)c1` here?
**A.** inconclusive [inhibitor, single point]

**Q.** With `N#CCCn1c(C2CCCCC2)nc2ccccc21` as the compound, how does the Potency read?
**A.** inactive

**Q.** For `NC1=NC(=O)/C(=C/c2ccc(OCC(=O)O)cc2)S1`, which Potency is on record?
**A.** inactive

**Q.** Which Potency does the source give for `CC(C)CCC(C)N=Cc1c(O)n(Cc2ccccc2)c(=O)c2ccccc12` (stereo not drawn) here?
**A.** inconclusive [inhibitor, single point]

**Q.** Which Potency does the source give for `COc1cccc(C(C)NC(=O)Nc2ccccc2Cl)c1` (stereo not drawn) here?
**A.** inconclusive [inhibitor, partial curve]

**Q.** Which Potency does the source give for `CCc1cccc(CC)c1NC(=O)c1cccc(NC(=O)c2ccccc2)c1` here?
**A.** inconclusive [inhibitor, single point]

**Q.** Which Potency does the source give for `Cc1cccc(C)c1NC(=O)CNC(=O)Cc1ccccc1[N+](=O)[O-]` here?
**A.** inactive
